# Measured values from the BET-seq Pho4 binding data (Le et al. 2018).
# This is one part of the list. Values were computed here from the reads of four pooled replicates and scatter widely.
# Biological target: T1, Pho4 (S. cerevisiae) (UniProt P07270)
# T1 sequence: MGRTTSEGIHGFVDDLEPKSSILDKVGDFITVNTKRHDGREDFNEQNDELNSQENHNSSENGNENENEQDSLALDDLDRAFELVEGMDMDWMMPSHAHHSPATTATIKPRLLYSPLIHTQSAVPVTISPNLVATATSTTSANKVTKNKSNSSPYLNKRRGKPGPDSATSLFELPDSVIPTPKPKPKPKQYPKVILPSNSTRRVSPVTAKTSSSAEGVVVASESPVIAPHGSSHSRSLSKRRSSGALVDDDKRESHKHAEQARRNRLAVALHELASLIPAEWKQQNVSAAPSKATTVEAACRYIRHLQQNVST
# Experiment: relative binding free energy (BET-seq); higher = weaker binding
# Conditions: reference: library average
row,Sequence,relative binding free energy
1,TTTTGCACGTGGGTTC,-0.01 kcal/mol
2,AAGTGCACGTGAATTG,0.31 kcal/mol
3,TTGCACACGTGTGTTG,-0.05 kcal/mol
4,TAGCGCACGTGTCTGG,-0.09 kcal/mol
5,GGAGACACGTGTATTT,0.14 kcal/mol
6,GATGGCACGTGATTTT,0.04 kcal/mol
7,AGTGTCACGTGATGAC,0.23 kcal/mol
8,TTTGGCACGTGTAGAG,-0.02 kcal/mol
9,TCTTTCACGTGGTTTT,0.33 kcal/mol
10,GGGGTCACGTGCTTGT,0.11 kcal/mol
11,AGATGCACGTGATTGG,0.13 kcal/mol
12,GAGATCACGTGGGGTC,0.06 kcal/mol
13,CGCGGCACGTGAAGGG,0.19 kcal/mol
14,AGTTGCACGTGCGGCT,-0.12 kcal/mol
15,GCAGGCACGTGTAGTT,-0.02 kcal/mol
16,CGGCACACGTGCGGGT,0.05 kcal/mol
17,ACATACACGTGAGGTT,0.29 kcal/mol
18,TCGAGCACGTGGTGCG,-0.21 kcal/mol
19,ATGAGCACGTGACGTT,0.06 kcal/mol
20,ATAGGCACGTGTCGGA,0 kcal/mol
21,TATGTCACGTGATAAG,0.33 kcal/mol
22,GTTTTCACGTGATTGG,0.4 kcal/mol
23,AAAGTCACGTGTGGTC,0.1 kcal/mol
24,GTTGGCACGTGAGTAC,0.16 kcal/mol
25,GGTAACACGTGTAGCG,0.11 kcal/mol

row,Sequence,relative binding free energy
1,TGTGACACGTGGTTGC,-0.06 kcal/mol
2,TTGGGCACGTGCCGAG,-0.15 kcal/mol
3,AGGATCACGTGTGGGG,0.24 kcal/mol
4,TGGGCCACGTGGGTAA,-0.24 kcal/mol
5,CTGTGCACGTGGGACG,-0.08 kcal/mol
6,CGGTCCACGTGGGAGT,-0.09 kcal/mol
7,TGGAACACGTGGGCGG,-0.02 kcal/mol
8,GTTGCCACGTGATAGG,0.08 kcal/mol
9,ATTGCCACGTGGCGTT,-0.04 kcal/mol
10,TGTTACACGTGGCCGG,0.07 kcal/mol
11,ATGGACACGTGAGTAG,0.13 kcal/mol
12,GCAGGCACGTGTAGGA,-0.05 kcal/mol
13,TAGGTCACGTGGTGGT,0.14 kcal/mol
14,GCTGTCACGTGTGAAG,0.13 kcal/mol
15,GGGATCACGTGTTTTG,0.32 kcal/mol
16,ATGTACACGTGTCTGA,0.21 kcal/mol
17,TTCGACACGTGGCGTG,-0.03 kcal/mol
18,TCTGACACGTGAGATG,0.45 kcal/mol
19,GGGTTCACGTGGTCAT,0.29 kcal/mol
20,ATGAGCACGTGGTCGT,-0.05 kcal/mol
21,ATATGCACGTGGTCTA,-0.14 kcal/mol
22,TGGGTCACGTGTCTAG,-0.03 kcal/mol
23,AGGGTCACGTGCAGTG,0.08 kcal/mol
24,CTTGTCACGTGTTTTG,0.18 kcal/mol
25,TGGGGCACGTGTGAAG,-0.07 kcal/mol

row,Sequence,relative binding free energy
1,GTTTTCACGTGTAACT,0.46 kcal/mol
2,TGTTTCACGTGAGCAG,0.36 kcal/mol
3,TTGAGCACGTGGAGAT,-0.04 kcal/mol
4,AGTAGCACGTGAGCGT,0.13 kcal/mol
5,TAGATCACGTGATTGA,0.24 kcal/mol
6,GGGGTCACGTGGTCTA,-0.03 kcal/mol
7,GTATTCACGTGTCGGA,0.33 kcal/mol
8,ATAGACACGTGATGGG,0.06 kcal/mol
9,GGGTACACGTGCAGTG,0.23 kcal/mol
10,GGGCGCACGTGAGTGG,0.07 kcal/mol
11,ATGGCCACGTGGTGTC,-0.19 kcal/mol
12,GGTGTCACGTGTGCAA,-0.01 kcal/mol
13,CCGTGCACGTGGCTTG,0.02 kcal/mol
14,GTGAACACGTGCAGGG,0.03 kcal/mol
15,AAAATCACGTGTATGT,0.15 kcal/mol
16,TCGGACACGTGTTTGT,-0.02 kcal/mol
17,GGTTACACGTGCTTGG,0.14 kcal/mol
18,ATATTCACGTGGGGCT,0.18 kcal/mol
19,GGATACACGTGAGAGG,0.39 kcal/mol
20,TTAGTCACGTGTTCTT,0.09 kcal/mol
21,TCTGGCACGTGGCGGA,-0.23 kcal/mol
22,CGTGTCACGTGGTAGA,-0.12 kcal/mol
23,TATAACACGTGTTGGT,-0.06 kcal/mol
24,TATGGCACGTGGGTGC,-0.15 kcal/mol
25,GCTTGCACGTGTAATT,0.18 kcal/mol

row,Sequence,relative binding free energy
1,TTAGTCACGTGATGCC,0.17 kcal/mol
2,CATTTCACGTGGAGGC,0.43 kcal/mol
3,TGGTACACGTGGGGCT,-0.02 kcal/mol
4,CTGCTCACGTGGGGCG,0.09 kcal/mol
5,TTTCTCACGTGGTGGC,0.1 kcal/mol
6,AGATGCACGTGTTTGG,-0.05 kcal/mol
7,AGGTTCACGTGGTAGT,0.3 kcal/mol
8,ATACTCACGTGTAGGG,0.06 kcal/mol
9,CTGTGCACGTGGACGG,-0.05 kcal/mol
10,TGGTACACGTGTGTCA,-0.01 kcal/mol
11,GGGCTCACGTGAGAGT,0.28 kcal/mol
12,AGGATCACGTGCGTTG,0.07 kcal/mol
13,GGGTACACGTGAAGAG,0.12 kcal/mol
14,GTGGTCACGTGATAAG,0.18 kcal/mol
15,TGATGCACGTGGTATA,-0.14 kcal/mol
16,GGGATCACGTGTGCGG,0.12 kcal/mol
17,GGATCCACGTGGTGGA,0.06 kcal/mol
18,GAAGGCACGTGAGGAG,0.21 kcal/mol
19,GATTTCACGTGAAAGT,0.34 kcal/mol
20,GTCCTCACGTGGAGGG,0.27 kcal/mol
21,GATGGCACGTGATCTT,0.04 kcal/mol
22,TTATTCACGTGAAGGA,0.28 kcal/mol
23,AAGTGCACGTGTGGAA,0.06 kcal/mol
24,TGTCTCACGTGTATGC,0.25 kcal/mol
25,CAGGTCACGTGAGTGT,0.24 kcal/mol

row,Sequence,relative binding free energy
1,AAGGGCACGTGGATGT,-0.17 kcal/mol
2,GTGAGCACGTGCGGGG,-0.15 kcal/mol
3,TAATGCACGTGTAAGT,0.03 kcal/mol
4,GGGGTCACGTGAAATA,0.3 kcal/mol
5,CTGGGCACGTGGGTCA,-0.37 kcal/mol
6,AGTTACACGTGGTTGG,0.11 kcal/mol
7,GATTCCACGTGTGGGT,0.31 kcal/mol
8,TATTACACGTGGGAGG,0.02 kcal/mol
9,TTGGTCACGTGGACTG,0.04 kcal/mol
10,GCTTTCACGTGGCGGG,0.15 kcal/mol
11,CTTTACACGTGGGGTA,-0.05 kcal/mol
12,TGATTCACGTGGAGTA,0.21 kcal/mol
13,AGATGCACGTGGTTAG,-0.07 kcal/mol
14,ATTGGCACGTGTGGGG,0 kcal/mol
15,GGGGCCACGTGTGAGA,0.06 kcal/mol
16,GAGGCCACGTGGTGGC,0.02 kcal/mol
17,GTTAGCACGTGCGGGC,0.16 kcal/mol
18,TGTGGCACGTGAGATA,0.14 kcal/mol
19,GTAGTCACGTGTTAGA,0.12 kcal/mol
20,GATGTCACGTGGTAAT,0.13 kcal/mol
21,GCTAGCACGTGGTTAG,-0.08 kcal/mol
22,GTGGTCACGTGGTTAA,0.19 kcal/mol
23,TCTGGCACGTGTTGAA,-0.11 kcal/mol
24,GGAGGCACGTGAGCAG,0.02 kcal/mol
25,TATATCACGTGTGAAT,0.13 kcal/mol

row,Sequence,relative binding free energy
1,GGTGCCACGTGTCTGG,-0.01 kcal/mol
2,TTTGCCACGTGTGAGA,-0.04 kcal/mol
3,TGGGTCACGTGACAAT,0.21 kcal/mol
4,ATATGCACGTGTGTGC,-0.13 kcal/mol
5,GTGGGCACGTGTGCTC,-0.05 kcal/mol
6,TTTAGCACGTGAGGAA,0.18 kcal/mol
7,AGAGGCACGTGTATTG,-0.22 kcal/mol
8,TTGGACACGTGGGCAG,-0.18 kcal/mol
9,GAGTTCACGTGGCTTA,0.23 kcal/mol
10,TGCGGCACGTGGTTGT,-0.17 kcal/mol
11,TGGTACACGTGACAGT,0.08 kcal/mol
12,TCGTTCACGTGCTTGG,0.31 kcal/mol
13,CTTTTCACGTGGTTTT,0.33 kcal/mol
14,TCGTGCACGTGGGGTA,-0.13 kcal/mol
15,ATGGACACGTGTGTTT,0.03 kcal/mol
16,TATTTCACGTGGGCGG,0.11 kcal/mol
17,AATGGCACGTGGAGTG,0.02 kcal/mol
18,TTGGGCACGTGCCTAG,-0.2 kcal/mol
19,GTCGTCACGTGCGGTA,0.24 kcal/mol
20,AGGAACACGTGAGGAT,0.44 kcal/mol
21,GGGTACACGTGTCGGT,0.21 kcal/mol
